The values below come from PubChem BioAssay AID485344 (National Center for Advancing Translational Sciences (NCATS), 2010).

Molecules are shown by their SMILES. The campaign covered roughly 340,000 compounds. About 6,900 (2%) were called active. Rule as the data show it: active = inhibition above about 30%; inactive = below that, where a call was filed. Only a part is listed here, and it is no random draw. The source gives no active or inactive call for entries shown without one.

In general, inhibition refers to the relative decrease from the control value, in per cent.

Sequence of UniProt P14416 (P14416 whole entry, looked up): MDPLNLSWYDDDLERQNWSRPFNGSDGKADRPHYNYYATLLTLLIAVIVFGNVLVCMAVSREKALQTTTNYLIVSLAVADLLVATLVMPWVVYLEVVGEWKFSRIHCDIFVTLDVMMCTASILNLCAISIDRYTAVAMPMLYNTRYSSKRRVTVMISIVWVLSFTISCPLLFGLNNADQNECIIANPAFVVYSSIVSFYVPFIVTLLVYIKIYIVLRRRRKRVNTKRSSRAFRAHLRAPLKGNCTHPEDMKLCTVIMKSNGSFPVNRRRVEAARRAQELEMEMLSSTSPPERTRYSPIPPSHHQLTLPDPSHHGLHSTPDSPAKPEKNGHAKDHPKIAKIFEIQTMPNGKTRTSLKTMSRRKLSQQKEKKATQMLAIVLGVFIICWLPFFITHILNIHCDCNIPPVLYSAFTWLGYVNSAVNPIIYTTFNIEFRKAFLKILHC

In the assay the target is D(2) dopamine receptor (Homo sapiens) (UniProt P14416). Nature of the assay: HTS Assay for Allosteric Antagonists of the Human D2 Dopamine Receptor: Primary Screen for Antagonists. Also: 0% is about no effect. The conditions noted are these: HEK293 TREx D2 cells, calcium flux, dopamine EC80; at 10 µM; stronger effect = higher value. In outline:
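Inhibition of EC80 dopamine-driven calcium flux, recorded kinetically, defines activity here; cells are a tetracycline-induced HEK293 T-REx line expressing force-coupled D2.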
(Calcium flux is commonly read through the fluorescence of an indicator in the cells.)
For the compound `CCCOC(=O)CSc1nnc(-c2ccccc2)o1`, the inhibition was 10.5%.

For `Cc1oc2ncnc(N3CCOCC3)c2c1C(=O)NCCc1ccccc1`, the inhibition was -4.95%.

In the case of `CCn1c(C(=O)Nc2ccc(C)cc2C)cc2sc(Cl)cc21`, the inhibition is -1.83%.

For `CC(C)NC(=O)c1ccc2c(c1)nc1n2CCCCC1`, the inhibition is 12.2%.

In the case of `CCOC(=O)COc1ccc(C)cc1C(=O)c1ccn2nc(-c3ccc(Cl)cc3)cc2n1`, the inhibition came to 4.43%.

Turning to `Cc1ccccc1NC(=S)NC1CCN(Cc2ccccc2)CC1`, the inhibition is active: 78.4%.

Regarding `O=C(c1cc(-c2ccc(F)cc2)on1)N1CCN(c2ccc(F)cc2)CC1`, the inhibition worked out at 6.89%.

Regarding `CC(=O)Nc1cc[n+](C(C)C(=O)c2ccc(Br)cc2)cc1` (stereo not drawn), the inhibition is active: 53.9%.

Regarding `CCCCNS(=O)(=O)c1ccc2nc(-c3cccnc3)cc(C(=O)NC(C)C)c2c1`, the inhibition was -4.93%.

With `O=C(CN1C(=O)c2cccc3cccc1c23)Nc1ccccc1Br`, the inhibition is -15.7%.

With `Cn1nc(C(=O)N2CCN(c3ccccc3F)CC2)c2c1-c1ccccc1S(=O)(=O)C2`, the inhibition is -15.6%.

Take `CCCC1N=C2c3ccccc3N=C(SCC(=O)NCCc3ccc(Cl)cc3)N2C1=O` (stereo not drawn): the inhibition worked out at 8.71%.

Take `Cc1cccc(N2CCN(Cc3cc(=O)oc4cc(C)ccc34)CC2C)c1` (stereo not drawn): the inhibition was -14.5%.

For the compound `Cc1ccccc1N1CC(c2nnc(NC(=O)c3ccco3)s2)CC1=O` (stereo not drawn), the inhibition was 18%.

For the compound `CC(C)(C)C1CCc2onc(C(=O)Nc3sc4c(c3C#N)CCCC4)c2C1` (stereo not drawn), the inhibition stood at 7.46%.

As to `CCOc1ccc(OCC(=O)NCCS(=O)(=O)N2CCN(c3cccc(Cl)c3)CC2)cc1`, the inhibition was -12.7%.

Regarding `Cc1ccc(Cn2c(=O)c3cccnc3n(CC(=O)Nc3cc(Cl)ccc3C)c2=O)cc1`, the inhibition is 4.24%.

In the case of `CSc1ccc(CCNC(=O)c2cc3cc4cc(C)ccc4nc3s2)cc1`, the inhibition turned out to be 14.4%.

For `CCN1C=C(Cc2cccs2)C2=C(C1)C(c1cccs1)C(C#N)=C(N)O2` (stereo not drawn), the inhibition is active: 80.6%.

Turning to `CCc1nn(CC(=O)NCCCc2ccccc2)c(=O)c2cc3ccccc3n12`, the inhibition is 0.456%.

With `Cc1c(Cl)cccc1NC(=O)Cn1c(=O)n(Cc2nc(-c3ccccc3)no2)c(=O)c2cc3c(cc21)OCO3`, the inhibition stood at 5.07%.

As to `Cc1c(Cl)cccc1NC(=O)C1CCN(c2nc3ccccc3[nH]2)CC1`, the inhibition was 13.9%.

In the case of `Cc1ccc(Nc2cc(C)c(C#N)c3nc4ccccc4n23)c(C)c1`, the inhibition turned out to be 4.46%.

In the case of `COC(=O)c1sccc1S(=O)(=O)N(CC(=O)Nc1ccccc1)c1ccccc1`, the inhibition was found to be 25%.

Regarding `CCc1ccc(CNC(=O)c2cnc3c(C)cccn3c2=O)cc1`, the inhibition is 7.49%.

In the case of `CCCC(=O)Nc1cccc(-c2cn3c(C)csc3n2)c1`, the inhibition is -10.2%.

For `COc1ccc(-c2oc3cccnc3c2/C=C/c2ccc(OC)c(OC)c2)cc1`, the inhibition is active: 30%.

For `COc1cc(C2Nc3ccccc3-c3nnc(SCc4ccc(C)cc4)nc3O2)cc(OC)c1O` (stereo not drawn), the inhibition was found to be 21.6%.

As for `CCCCN(C)S(=O)(=O)c1ccc(C(=O)Nc2ccc(-c3nc4ccc(C)cc4s3)cc2)cc1`, the inhibition worked out at 9.24%.

`N#CCSc1nc2ccccc2c2nc3ccccc3n12`: the inhibition is active: 32.5%.

In the case of `CC(C)C(=O)OCc1cc(=O)n2nc(C3CC3)sc2n1`, the inhibition was 0.0085%.

Take `Cc1cc(Cl)ccc1NC(=O)CCCn1nc(C)c2c(C)n(-c3ccccc3)nc2c1=O`: the inhibition is -9.2%.

On to `Cc1cc(C)cc(NC(=O)CSc2nc3sc4c(c3c(=O)[nH]2)CCCC4)c1`, for which the inhibition came out at 12.4%.

For `CCC1CN(C(=O)Nc2cc(Cl)c(OC)cc2OC)c2ccccc2O1` (stereo not drawn), the inhibition was 5.06%.

In the case of `CCc1ccc(C2c3c(oc4cc(C)c(C)cc4c3=O)C(=O)N2c2nc(C)c(C(=O)OC)s2)cc1` (stereo not drawn), the inhibition was -24.2%.

Consider `COc1ccc(-c2noc(CC(=O)Nc3ccc(C)c(F)c3)n2)cc1`, for which the inhibition is -10.8%.

Regarding `Cc1ccc(S(=O)(=O)N(C)C)cc1NC(=O)CSc1nc2ccccc2[nH]1`, the inhibition is active: 30.8%.

For `Cc1cc(C(=O)NCc2ccccc2Cl)c2c(C)nn(-c3cccc(F)c3)c2n1`, the inhibition is -1.72%.

As for `Cc1ccc2oc(=O)n(CCNC(=O)Nc3ccc(Cl)cc3)c2c1`, the inhibition was -1.3%.

In the case of `O=C(NCC(c1ccco1)S(=O)(=O)c1cccs1)c1ccc(Cl)cc1` (stereo not drawn), the inhibition is -17.5%.

Turning to `CCCN(C(=O)Nc1cn(CC(C)C)c(=O)c2ccccc12)c1ccc(F)cc1`, the inhibition is -3.63%.

As to `O=C(OCCN1C(=O)c2cccc3c(N4CCOCC4)ccc(c23)C1=O)c1cccc(Cl)c1`, the inhibition is active: 34.6%.

For the compound `Cc1ccc(C(=O)Nc2ccc3oc(-c4ccccc4C)nc3c2)cc1`, the inhibition was -21%.

Turning to `CCCCNC(=O)c1ccc2c(c1)NC(=O)C(CS(=O)(=O)Cc1ccc(C)cc1)N2` (stereo not drawn), the inhibition is 0.245%.

Take `CC(=O)N1CCc2c(sc3c2c(=O)n(-c2ccc(C)cc2)c(=O)n3Cc2ccccc2C)C1`: the inhibition is -4.95%.

Turning to `Cc1cc(C)cc(OCC(=O)N2CCC(c3nc4ccccc4s3)CC2)c1`, the inhibition came out at 4.51%.

For the compound `CC(C)[C@@H](NC(=O)OC(C)(C)C)C(=O)NCC1CCC(C(=O)N[C@@H](Cc2ccccc2)C(=O)O)CC1` (stereo partly drawn), the inhibition was active: 31.8%.

Regarding `CCCN1C(=O)C(Cc2nc3ccccc3c(=O)n2-c2ccc(OC)cc2)c2cc(C)ccc21` (stereo not drawn), the inhibition is 12.9%.

As to `C=CCc1cc(Cl)ccc1OCCN(C)C`, the inhibition was active: 53.2%.

On to `CCc1cccc(C)c1NC(=O)CSc1nc2c(c(=O)[nH]1)CCC2`, for which the inhibition is -1.28%.

In the case of `Cn1cc(S(=O)(=O)c2cccc(Cl)c2)c(=O)c2cc(F)c(N3CCCCC3)cc21`, the inhibition is -11.2%.

Turning to `O=C(NCCc1ccc(Cl)cc1)c1ccc(CSCc2cccc(Cl)c2)o1`, the inhibition was -13.8%.

Consider `Cc1ccc(Cl)cc1NC(=O)c1oc2ccc(S(=O)(=O)N3CCCCCC3)cc2c1C`, for which the inhibition is -13%.

On to `CCOc1ccc(-c2cc(C(=O)NCCc3ccc(OC)c(OC)c3)c3c(-c4ccc(F)cc4)[nH]nc3n2)cc1`, for which the inhibition was -8.31%.

On to `COc1ccc(Cl)cc1NC(=O)c1cc(S(=O)(=O)N(C)Cc2ccccc2)ccc1F`, for which the inhibition was -21.5%.

For `Cc1ccc(C)c(N2CCN(c3nc4ccc(C(=O)c5ccccc5)cc4n4cnnc34)CC2)c1`, the inhibition is -11.4%.

Take `CCOC(=O)c1cnc2c(C)cccc2c1Nc1ccc(OC(C)C)cc1`: the inhibition was -6.14%.

For the compound `COc1ccccc1CN(Cc1c(Cl)cccc1Cl)S(=O)(=O)c1ccc(Br)cc1`, the inhibition is -4.47%.

For the compound `NC(=O)CSc1nc2ccc(NC(=O)COc3ccccc3Cl)cc2s1`, the inhibition came to 3.74%.

`CS(=O)(=O)N(Cc1ccccc1)c1ccc(C(=O)Nc2ccc(Cl)cc2)cc1`: the inhibition was -6.45%.

Regarding `Cc1cccc(-n2nc(C)c(C(=O)N3CCN(c4ccccc4)CC3)c2-n2cccc2)c1`, the inhibition is -6.12%.

As to `COc1ccccc1C(=O)Nc1ccc(S(=O)(=O)Nc2ncccn2)cc1`, the inhibition stood at 16.4%.

With `Cc1ccc(C)c(N2CCN(C(=O)C(CC(C)C)NS(=O)(=O)c3ccc4nc(C)sc4c3)CC2)c1` (stereo not drawn), the inhibition stood at 15.2%.
